Reference: the supplement of paper PMC11876631
± gives the standard deviation of the averaged measurements. Laboratory Escherichia coli strains with one amino-acid change in an essential protein, pooled on minimal glucose agar with carbenicillin or gentamicin at twice the control MIC (plus kanamycin and chloramphenicol for the plasmids), 48 h. Fold change of barcode share against drug-free plates; higher = less susceptible. Active = above 20 in both replicates (the paper's putatively resistant). '<' = one read or none on drug, '>' = one read or none on a drug-free plate. Shares are relative, so most strains fall below 1 when a few take over. Listed are strains with at least 15 reads on both drug-free plates, and hits; most hits rest on fewer reference reads. Replicate rank correlation about 0.5. Edits are read from barcodes.

B1: metK L28A (protein)
chain: MAKHLFTSESVSEGHPDKIADQISDAVADAILEQDPKARVACETYVKTGMVLVGGEITTSAWVDIEEITRNTVREIGYVHSDMGFDANSCAVLSAIGKQSPDINQGVDRADPLEQGAGDQGLMFGYATNETDVLMPAPITYAHRLVQRQAEVRKNGTLPWLRPDAKSQVTFQYDDGKIVGIDAVVLSTQHSEEIDQKSLQEAVMEEIIKPILPAEWLTSATKFFINPTGRFVIGGPMGDCGLTGRKIIVDTYGGMARHGGGAFSGKDPSKVDRSAAYAARYVAKNIVAAGLADRCEIQVSYAIGVAEPTSIMVETFGTEKVPSEQLTLLVREFFDLRPYGLIQMLDLLHPIYKETAAYGHFGREHFPWEKTDKAQLLRDAAGLK
B2: metK L28P (protein)
chain: MAKHLFTSESVSEGHPDKIADQISDAVPDAILEQDPKARVACETYVKTGMVLVGGEITTSAWVDIEEITRNTVREIGYVHSDMGFDANSCAVLSAIGKQSPDINQGVDRADPLEQGAGDQGLMFGYATNETDVLMPAPITYAHRLVQRQAEVRKNGTLPWLRPDAKSQVTFQYDDGKIVGIDAVVLSTQHSEEIDQKSLQEAVMEEIIKPILPAEWLTSATKFFINPTGRFVIGGPMGDCGLTGRKIIVDTYGGMARHGGGAFSGKDPSKVDRSAAYAARYVAKNIVAAGLADRCEIQVSYAIGVAEPTSIMVETFGTEKVPSEQLTLLVREFFDLRPYGLIQMLDLLHPIYKETAAYGHFGREHFPWEKTDKAQLLRDAAGLK
B3: metK V330A (protein)
chain: MAKHLFTSESVSEGHPDKIADQISDAVLDAILEQDPKARVACETYVKTGMVLVGGEITTSAWVDIEEITRNTVREIGYVHSDMGFDANSCAVLSAIGKQSPDINQGVDRADPLEQGAGDQGLMFGYATNETDVLMPAPITYAHRLVQRQAEVRKNGTLPWLRPDAKSQVTFQYDDGKIVGIDAVVLSTQHSEEIDQKSLQEAVMEEIIKPILPAEWLTSATKFFINPTGRFVIGGPMGDCGLTGRKIIVDTYGGMARHGGGAFSGKDPSKVDRSAAYAARYVAKNIVAAGLADRCEIQVSYAIGVAEPTSIMVETFGTEKVPSEQLTLLAREFFDLRPYGLIQMLDLLHPIYKETAAYGHFGREHFPWEKTDKAQLLRDAAGLK
B4: metK V330W (protein)
chain: MAKHLFTSESVSEGHPDKIADQISDAVLDAILEQDPKARVACETYVKTGMVLVGGEITTSAWVDIEEITRNTVREIGYVHSDMGFDANSCAVLSAIGKQSPDINQGVDRADPLEQGAGDQGLMFGYATNETDVLMPAPITYAHRLVQRQAEVRKNGTLPWLRPDAKSQVTFQYDDGKIVGIDAVVLSTQHSEEIDQKSLQEAVMEEIIKPILPAEWLTSATKFFINPTGRFVIGGPMGDCGLTGRKIIVDTYGGMARHGGGAFSGKDPSKVDRSAAYAARYVAKNIVAAGLADRCEIQVSYAIGVAEPTSIMVETFGTEKVPSEQLTLLWREFFDLRPYGLIQMLDLLHPIYKETAAYGHFGREHFPWEKTDKAQLLRDAAGLK
B5: metK V330Q (protein)
chain: MAKHLFTSESVSEGHPDKIADQISDAVLDAILEQDPKARVACETYVKTGMVLVGGEITTSAWVDIEEITRNTVREIGYVHSDMGFDANSCAVLSAIGKQSPDINQGVDRADPLEQGAGDQGLMFGYATNETDVLMPAPITYAHRLVQRQAEVRKNGTLPWLRPDAKSQVTFQYDDGKIVGIDAVVLSTQHSEEIDQKSLQEAVMEEIIKPILPAEWLTSATKFFINPTGRFVIGGPMGDCGLTGRKIIVDTYGGMARHGGGAFSGKDPSKVDRSAAYAARYVAKNIVAAGLADRCEIQVSYAIGVAEPTSIMVETFGTEKVPSEQLTLLQREFFDLRPYGLIQMLDLLHPIYKETAAYGHFGREHFPWEKTDKAQLLRDAAGLK
B6: metK V330P (protein)
chain: MAKHLFTSESVSEGHPDKIADQISDAVLDAILEQDPKARVACETYVKTGMVLVGGEITTSAWVDIEEITRNTVREIGYVHSDMGFDANSCAVLSAIGKQSPDINQGVDRADPLEQGAGDQGLMFGYATNETDVLMPAPITYAHRLVQRQAEVRKNGTLPWLRPDAKSQVTFQYDDGKIVGIDAVVLSTQHSEEIDQKSLQEAVMEEIIKPILPAEWLTSATKFFINPTGRFVIGGPMGDCGLTGRKIIVDTYGGMARHGGGAFSGKDPSKVDRSAAYAARYVAKNIVAAGLADRCEIQVSYAIGVAEPTSIMVETFGTEKVPSEQLTLLPREFFDLRPYGLIQMLDLLHPIYKETAAYGHFGREHFPWEKTDKAQLLRDAAGLK
B7: metK L186A (protein)
chain: MAKHLFTSESVSEGHPDKIADQISDAVLDAILEQDPKARVACETYVKTGMVLVGGEITTSAWVDIEEITRNTVREIGYVHSDMGFDANSCAVLSAIGKQSPDINQGVDRADPLEQGAGDQGLMFGYATNETDVLMPAPITYAHRLVQRQAEVRKNGTLPWLRPDAKSQVTFQYDDGKIVGIDAVVASTQHSEEIDQKSLQEAVMEEIIKPILPAEWLTSATKFFINPTGRFVIGGPMGDCGLTGRKIIVDTYGGMARHGGGAFSGKDPSKVDRSAAYAARYVAKNIVAAGLADRCEIQVSYAIGVAEPTSIMVETFGTEKVPSEQLTLLVREFFDLRPYGLIQMLDLLHPIYKETAAYGHFGREHFPWEKTDKAQLLRDAAGLK
B8: metK L186Q (protein)
chain: MAKHLFTSESVSEGHPDKIADQISDAVLDAILEQDPKARVACETYVKTGMVLVGGEITTSAWVDIEEITRNTVREIGYVHSDMGFDANSCAVLSAIGKQSPDINQGVDRADPLEQGAGDQGLMFGYATNETDVLMPAPITYAHRLVQRQAEVRKNGTLPWLRPDAKSQVTFQYDDGKIVGIDAVVQSTQHSEEIDQKSLQEAVMEEIIKPILPAEWLTSATKFFINPTGRFVIGGPMGDCGLTGRKIIVDTYGGMARHGGGAFSGKDPSKVDRSAAYAARYVAKNIVAAGLADRCEIQVSYAIGVAEPTSIMVETFGTEKVPSEQLTLLVREFFDLRPYGLIQMLDLLHPIYKETAAYGHFGREHFPWEKTDKAQLLRDAAGLK
B9: metL V126A (protein)
chain: MSVIAQAGAKGRQLHKFGGSSLADVKCYLRVAGIMAEYSQPDDMMVVSAAGSTTNQLINWLKLSQTDRLSAHQVQQTLRRYQCDLISGLLPAEEADSLISAFVSDLERLAALLDSGINDAVYAEVAGHGEVWSARLMSAVLNQQGLPAAWLDAREFLRAERAAQPQVDEGLSYPLLQQLLVQHPGKRLVVTGFISRNNAGETVLLGRNGSDYSATQIGALAGVSRVTIWSDVAGVYSADPRKVKDACLLPLLRLDEASELARLAAPVLHARTLQPVSGSEIDLQLRCSYTPDQGSTRIERVLASGTGARIVTSHDDVCLIEFQVPASQDFKLAHKEIDQILKRAQVRPLAVGVHNDRQLLQFCYTSEVADSALKILDEAGLPGELRLRQGLALVAMVGAGVTRNPLHCHRFWQQLKGQPVEFTWQSDDGISLVAVLRTGPTESLIQGLHQSVFRAEKRIGLVLFGKGNIGSRWLELFAREQSTLSARTGFEFVLAGVVDSRRSLLSYDGLDASRALAFFNDEAVEQDEESLFLWMRAHPYDDLVVLDVTASQQLADQYLDFASHGFHVISANKLAGASDSNKYRQIHDAFEKTGRHWLYNATVGAGLPINHTVRDLIDSGDTILSISGIFSGTLSWLFLQFDGSVPFTELVDQAWQQGLTEPDPRDDLSGKDVMRKLVILAREAGYNIEPDQVRVESLVPAHCEGGSIDHFFENGDELNEQMVQRLEAAREMGLVLRYVARFDANGKARVGVEAVREDHPLASLLPCDNVFAIESRWYRDNPLVIRGPGAGRDVTAGAIQSDINRLAQLL
B10: metL V126W (protein)
chain: MSVIAQAGAKGRQLHKFGGSSLADVKCYLRVAGIMAEYSQPDDMMVVSAAGSTTNQLINWLKLSQTDRLSAHQVQQTLRRYQCDLISGLLPAEEADSLISAFVSDLERLAALLDSGINDAVYAEVWGHGEVWSARLMSAVLNQQGLPAAWLDAREFLRAERAAQPQVDEGLSYPLLQQLLVQHPGKRLVVTGFISRNNAGETVLLGRNGSDYSATQIGALAGVSRVTIWSDVAGVYSADPRKVKDACLLPLLRLDEASELARLAAPVLHARTLQPVSGSEIDLQLRCSYTPDQGSTRIERVLASGTGARIVTSHDDVCLIEFQVPASQDFKLAHKEIDQILKRAQVRPLAVGVHNDRQLLQFCYTSEVADSALKILDEAGLPGELRLRQGLALVAMVGAGVTRNPLHCHRFWQQLKGQPVEFTWQSDDGISLVAVLRTGPTESLIQGLHQSVFRAEKRIGLVLFGKGNIGSRWLELFAREQSTLSARTGFEFVLAGVVDSRRSLLSYDGLDASRALAFFNDEAVEQDEESLFLWMRAHPYDDLVVLDVTASQQLADQYLDFASHGFHVISANKLAGASDSNKYRQIHDAFEKTGRHWLYNATVGAGLPINHTVRDLIDSGDTILSISGIFSGTLSWLFLQFDGSVPFTELVDQAWQQGLTEPDPRDDLSGKDVMRKLVILAREAGYNIEPDQVRVESLVPAHCEGGSIDHFFENGDELNEQMVQRLEAAREMGLVLRYVARFDANGKARVGVEAVREDHPLASLLPCDNVFAIESRWYRDNPLVIRGPGAGRDVTAGAIQSDINRLAQLL
B11: metL V126Q (protein)
chain: MSVIAQAGAKGRQLHKFGGSSLADVKCYLRVAGIMAEYSQPDDMMVVSAAGSTTNQLINWLKLSQTDRLSAHQVQQTLRRYQCDLISGLLPAEEADSLISAFVSDLERLAALLDSGINDAVYAEVQGHGEVWSARLMSAVLNQQGLPAAWLDAREFLRAERAAQPQVDEGLSYPLLQQLLVQHPGKRLVVTGFISRNNAGETVLLGRNGSDYSATQIGALAGVSRVTIWSDVAGVYSADPRKVKDACLLPLLRLDEASELARLAAPVLHARTLQPVSGSEIDLQLRCSYTPDQGSTRIERVLASGTGARIVTSHDDVCLIEFQVPASQDFKLAHKEIDQILKRAQVRPLAVGVHNDRQLLQFCYTSEVADSALKILDEAGLPGELRLRQGLALVAMVGAGVTRNPLHCHRFWQQLKGQPVEFTWQSDDGISLVAVLRTGPTESLIQGLHQSVFRAEKRIGLVLFGKGNIGSRWLELFAREQSTLSARTGFEFVLAGVVDSRRSLLSYDGLDASRALAFFNDEAVEQDEESLFLWMRAHPYDDLVVLDVTASQQLADQYLDFASHGFHVISANKLAGASDSNKYRQIHDAFEKTGRHWLYNATVGAGLPINHTVRDLIDSGDTILSISGIFSGTLSWLFLQFDGSVPFTELVDQAWQQGLTEPDPRDDLSGKDVMRKLVILAREAGYNIEPDQVRVESLVPAHCEGGSIDHFFENGDELNEQMVQRLEAAREMGLVLRYVARFDANGKARVGVEAVREDHPLASLLPCDNVFAIESRWYRDNPLVIRGPGAGRDVTAGAIQSDINRLAQLL

molecular target: Escherichia coli (laboratory strain); experiment: barcode share on antibiotic plates over drug-free plates; higher = less susceptible; conditions: antibiotic: carbenicillin; 2× MIC (3.1 µg/mL)
Description: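 A pool of E. coli strains, each edited to carry one amino-acid change in an essential protein, was grown for 48 h on minimal glucose agar with or without antibiotic; strain barcodes were sequenced; mean of two replicates.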

With B1 as the protein, how does the “fold change of barcode share” value read?
Its value is 0.291 ± 0.13.

B2 was tested. Which “fold change of barcode share” value did it give?
The value was 0.154 ± 0.049.

Which “fold change of barcode share” value does the source give for B3 here?
The value was 0.318 ± 0.2.

Which “fold change of barcode share” value does the source give for B4 here?
The value was 0.191 ± 0.068.

Which “fold change of barcode share” value does the source give for B5 here?
The value was 0.219 ± 0.036.

How did the “fold change of barcode share” value turn out when B6 was run?
The value was 0.219 ± 0.09.

B7 was tested. Which “fold change of barcode share” value did it give?
Its value is 0.319 ± 0.016.

How did the “fold change of barcode share” value turn out when B8 was run?
The value was 0.816 ± 0.14.

B9 was tested. Which “fold change of barcode share” value did it give?
The value was 0.184 ± 0.016.

B10 was tested. Which “fold change of barcode share” value did it give?
The value was 0.489 ± 0.23.

With B11 as the protein, how does the “fold change of barcode share” value read?
Its value is 0.14 ± 0.0041.

same assay, conditions: antibiotic: gentamicin; 2× MIC (MIC 0.45 µg/mL)

With B1 as the protein, how does the “fold change of barcode share” value read?
The value was under 0.00933.

B3 was tested. Which “fold change of barcode share” value did it give?
The value was 0.0186 ± 0.0096.

How did the “fold change of barcode share” value turn out when B4 was run?
Its value is under 0.00921.

B5 was tested. Which “fold change of barcode share” value did it give?
Its value is under 0.0122.

B7 was tested. Which “fold change of barcode share” value did it give?
The value was under 0.00462.

For B8, which “fold change of barcode share” value is on record?
Its value is 0.00516 ± 0.0035.

How did the “fold change of barcode share” value turn out when B9 was run?
The value was 0.0101 ± 0.0077.

B10 was tested. Which “fold change of barcode share” value did it give?
Its value is under 0.00584.

With B11 as the protein, how does the “fold change of barcode share” value read?
Its value is under 0.00464.
